Results are given in words; binding and its absence hold for the method and conditions named. Binding seen in cells or lysates may run through a third protein. Some binding calls cover weakened binding; strength is not graded here.
How the values were obtained:
Experiment in all cases: co-IP; HEK293T cells co-transfected with SLC9A9 and the partner plasmid, collected 36 h after transfection; lysed in 50 mM Tris-HCl pH 7.4, 1 mM EDTA, 150 mM NaCl, 1% Triton; protein A/G Plus-Agarose and 3 ug antibody, 12 h at 4 C, 5 washes; immunoblot; some samples with amiloride treatment (interaction inhibited)
Rab5a (mouse) = target: T1, Rab5a (mouse) (UniProt Q9CQD1)
T1 sequence: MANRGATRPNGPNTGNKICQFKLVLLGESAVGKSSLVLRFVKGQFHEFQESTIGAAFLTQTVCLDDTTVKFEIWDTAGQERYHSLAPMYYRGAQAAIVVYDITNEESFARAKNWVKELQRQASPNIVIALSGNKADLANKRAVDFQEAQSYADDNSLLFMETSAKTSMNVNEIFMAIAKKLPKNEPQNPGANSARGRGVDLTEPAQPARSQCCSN

Vps11 (mouse) = target: T2, Vps11 (mouse) (UniProt Q91W86)
T2 sequence: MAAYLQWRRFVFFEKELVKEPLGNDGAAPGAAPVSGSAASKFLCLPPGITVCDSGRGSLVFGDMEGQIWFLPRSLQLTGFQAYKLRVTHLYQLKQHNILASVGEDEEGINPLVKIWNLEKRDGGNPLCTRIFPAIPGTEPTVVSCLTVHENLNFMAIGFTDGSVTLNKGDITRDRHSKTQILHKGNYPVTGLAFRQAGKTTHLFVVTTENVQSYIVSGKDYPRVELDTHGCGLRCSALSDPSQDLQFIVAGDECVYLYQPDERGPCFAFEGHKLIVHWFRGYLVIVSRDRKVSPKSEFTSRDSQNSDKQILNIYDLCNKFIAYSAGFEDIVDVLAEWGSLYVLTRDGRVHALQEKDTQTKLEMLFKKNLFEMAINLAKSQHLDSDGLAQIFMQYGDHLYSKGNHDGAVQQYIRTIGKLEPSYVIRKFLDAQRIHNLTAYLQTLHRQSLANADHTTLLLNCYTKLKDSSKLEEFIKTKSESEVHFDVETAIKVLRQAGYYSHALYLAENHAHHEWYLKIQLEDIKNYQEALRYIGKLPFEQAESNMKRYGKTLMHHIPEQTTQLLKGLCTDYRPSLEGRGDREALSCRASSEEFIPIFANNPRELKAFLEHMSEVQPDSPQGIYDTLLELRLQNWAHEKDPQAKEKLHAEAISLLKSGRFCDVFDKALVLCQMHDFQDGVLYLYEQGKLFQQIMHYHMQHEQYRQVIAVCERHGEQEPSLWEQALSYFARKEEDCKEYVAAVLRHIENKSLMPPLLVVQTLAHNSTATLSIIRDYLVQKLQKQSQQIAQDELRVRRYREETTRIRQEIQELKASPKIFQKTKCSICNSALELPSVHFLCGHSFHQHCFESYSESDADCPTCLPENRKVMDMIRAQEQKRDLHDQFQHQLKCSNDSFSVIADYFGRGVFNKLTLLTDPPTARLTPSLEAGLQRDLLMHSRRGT

Vps39 (mouse) = target: T3, Vps39 (mouse) (UniProt Q8R5L3)
T3 sequence: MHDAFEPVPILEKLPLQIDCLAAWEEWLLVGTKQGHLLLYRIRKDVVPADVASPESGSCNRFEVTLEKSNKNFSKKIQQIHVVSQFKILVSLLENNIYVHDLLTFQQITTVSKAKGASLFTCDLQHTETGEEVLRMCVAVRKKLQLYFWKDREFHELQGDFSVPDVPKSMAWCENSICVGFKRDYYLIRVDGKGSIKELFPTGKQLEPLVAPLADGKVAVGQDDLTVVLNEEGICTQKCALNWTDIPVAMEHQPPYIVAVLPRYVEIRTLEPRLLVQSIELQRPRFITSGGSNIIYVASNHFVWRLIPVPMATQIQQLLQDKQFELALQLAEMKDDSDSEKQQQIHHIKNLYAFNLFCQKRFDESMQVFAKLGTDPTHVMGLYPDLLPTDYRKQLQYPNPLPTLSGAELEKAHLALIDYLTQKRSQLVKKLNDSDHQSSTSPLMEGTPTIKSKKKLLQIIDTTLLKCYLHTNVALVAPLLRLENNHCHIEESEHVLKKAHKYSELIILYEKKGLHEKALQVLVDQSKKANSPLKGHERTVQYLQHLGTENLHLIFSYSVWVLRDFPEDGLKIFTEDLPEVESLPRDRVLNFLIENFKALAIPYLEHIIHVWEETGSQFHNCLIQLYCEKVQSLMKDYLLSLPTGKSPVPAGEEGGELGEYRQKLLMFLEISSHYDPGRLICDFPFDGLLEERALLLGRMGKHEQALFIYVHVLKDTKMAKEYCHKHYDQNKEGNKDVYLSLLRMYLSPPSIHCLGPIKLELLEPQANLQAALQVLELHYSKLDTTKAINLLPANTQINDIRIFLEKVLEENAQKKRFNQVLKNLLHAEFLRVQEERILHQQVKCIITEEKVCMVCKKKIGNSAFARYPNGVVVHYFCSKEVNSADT

- binding (Rab5a (mouse)): no binding
- binding (Vps11 (mouse)): binds
- binding (Vps39 (mouse)): binds
B1: Endosomal solute carrier family 9 member A9 (SLC9A9) (protein, UniProt Q8BZ00 1-644)
chain: MAGQLRFTSGKDEDHFQHQGAVELLAFNFLLILTILTIWLFKNHRFRFLHETGGAMVYGLIMGLILRYATAPTDIDSGTVYNCGNLFFSPSTLLVNITDQVYEYKYQREINQHNISPHQGNAILEKMTFDPEIFFNVLLPPIIFHAGYSLKKRHFFQNLGSILTYAFLGTAISCVVIGLIMYGFVKAMVHAGQLKSGDFHFTDCLFFGSLMSATDPVTVLAIFHELHVDPDLYTLLFGESVLNDAVAIVLTYSISIYSPKENPNAFDTAAFFQSVGNFLGIFAGSFAMGSAYAVVTALLTKFTKLREFPMLETGLFFLLSWSAFLSAEAAGLTGIVAVLFCGVTQAHYTYNNLSSDSKLRTKQLFEFMNFLAENVIFCYMGLALFTFQNHIFNALFILGAFLAIFVARACNIYPLSFLLNLGRKQKIPWNFQHMMMFSGLRGAIAFALAIRNTESQPKQMMFTTTLLLVFFTVWVFGGGTTPMLTWLQIRVGVDLDESLKEEPSSQQEANKLDKNMTKTESAQLFRMWYGFDHKYLKPILTHSGPPLTTTLPAWCGPVSRLLTSPQAYGEQLKEDDVECIVNQDELAMNYQEQSPSPSSPTTKLALDQKSSGQTPGKENIYEGDLGLGGYDLKLEQTRGQPQMD

Source: publication PMC12537989
